{"source": "paper PMC4336329", "about": "(PLoS ONE, 2015)", "note": "Hit rate of the full screen: of about 310,000 compounds, about 2,200 (0.71%) showed an effect of 50% or more. The effect is printed as a negative number. Some of the results follow.", "data": [{"biological_target": "human ether-à-go-go-related gene (hERG) potassium channel (human, UniProt Q12809)", "sequence (Q12809 whole entry, looked up)": "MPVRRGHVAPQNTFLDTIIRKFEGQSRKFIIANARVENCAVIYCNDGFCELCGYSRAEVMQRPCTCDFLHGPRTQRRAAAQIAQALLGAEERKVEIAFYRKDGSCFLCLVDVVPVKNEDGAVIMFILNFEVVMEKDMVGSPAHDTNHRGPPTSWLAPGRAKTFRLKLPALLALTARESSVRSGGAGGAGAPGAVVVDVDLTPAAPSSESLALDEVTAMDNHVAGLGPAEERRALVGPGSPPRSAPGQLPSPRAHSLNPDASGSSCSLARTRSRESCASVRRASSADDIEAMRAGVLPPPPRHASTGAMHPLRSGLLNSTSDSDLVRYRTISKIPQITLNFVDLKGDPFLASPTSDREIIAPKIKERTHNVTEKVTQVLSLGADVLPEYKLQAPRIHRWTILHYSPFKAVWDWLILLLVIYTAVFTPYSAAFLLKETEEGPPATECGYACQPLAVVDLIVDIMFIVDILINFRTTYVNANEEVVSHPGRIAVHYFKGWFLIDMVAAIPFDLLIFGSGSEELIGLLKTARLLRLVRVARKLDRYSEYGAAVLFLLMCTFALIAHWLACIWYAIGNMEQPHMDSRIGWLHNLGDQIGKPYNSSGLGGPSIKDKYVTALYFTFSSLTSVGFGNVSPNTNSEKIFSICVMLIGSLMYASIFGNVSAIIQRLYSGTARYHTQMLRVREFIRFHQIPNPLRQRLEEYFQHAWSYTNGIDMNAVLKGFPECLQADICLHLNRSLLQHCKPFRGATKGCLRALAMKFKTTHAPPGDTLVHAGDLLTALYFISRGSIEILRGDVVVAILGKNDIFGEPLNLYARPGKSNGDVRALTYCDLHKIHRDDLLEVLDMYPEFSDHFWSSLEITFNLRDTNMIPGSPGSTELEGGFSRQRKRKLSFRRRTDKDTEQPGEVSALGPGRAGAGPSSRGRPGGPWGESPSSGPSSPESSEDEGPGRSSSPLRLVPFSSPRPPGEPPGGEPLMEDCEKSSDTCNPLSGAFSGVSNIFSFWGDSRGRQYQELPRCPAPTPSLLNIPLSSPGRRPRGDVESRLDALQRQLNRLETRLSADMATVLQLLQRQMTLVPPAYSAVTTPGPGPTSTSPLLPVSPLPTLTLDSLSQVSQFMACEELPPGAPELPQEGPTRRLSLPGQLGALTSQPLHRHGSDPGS", "assay": "primary screen, population patch clamp on CHO cells stably expressing hERG", "units": {"hERG current change (%, negative = inhibition) at 1uM": "%"}, "values": [{"smiles": "COc1ccc(S(=O)(=O)N2CCN(C(=O)NCc3ccc(OC)c(OC)c3)CC2)cc1", "hERG current change (%, negative = inhibition) at 1uM": 11.5}, {"smiles": "Cl.O=C1c2cccc3cccc(c23)C(=O)N1CCN1CCN(CC(O)COCc2ccc(Cl)cc2)CC1", "note": "(stereo not drawn)", "hERG current change (%, negative = inhibition) at 1uM": -32.8}, {"smiles": "FC(F)(F)c1cc(C(F)(F)F)c2ccc(Oc3ccccc3)nc2n1", "hERG current change (%, negative = inhibition) at 1uM": 8.38}, {"smiles": "O=c1[nH]c(C2CCN(S(=O)(=O)c3ccccc3)CC2)nc2c1nnn2Cc1c(F)cccc1Cl", "hERG current change (%, negative = inhibition) at 1uM": 8.03}, {"smiles": "CC(Sc1nc2sccc2c(=O)n1-c1ccccc1)C(N)=O", "note": "(stereo not drawn)", "hERG current change (%, negative = inhibition) at 1uM": 9.93}, {"smiles": "COCc1[nH]nc2c1C(c1sccc1C)C(C#N)=C(N)O2", "note": "(stereo not drawn)", "hERG current change (%, negative = inhibition) at 1uM": 5.81}, {"smiles": "COc1ccc(C(=O)NCC(=O)N2CCC3(CC2)NCCc2[nH]cnc23)cc1", "hERG current change (%, negative = inhibition) at 1uM": 15.5}, {"smiles": "COc1ccccc1NC(=O)C1C2C=CC(O2)C1C(=O)O", "note": "(stereo not drawn)", "hERG current change (%, negative = inhibition) at 1uM": 7}, {"smiles": "CCN(CC)S(=O)(=O)c1ccc(C(=O)Nc2nnc(NC(=S)Nc3ccccc3)s2)cc1", "hERG current change (%, negative = inhibition) at 1uM": 6.94}, {"smiles": "CCOC(=O)C1=C(O)C(=O)N(Cc2ccccc2)C1", "hERG current change (%, negative = inhibition) at 1uM": 10.8}, {"smiles": "COC(=O)c1sc(SC)c(S(=O)(=O)C(C)C)c1N/N=C(\\C#N)S(=O)(=O)c1ccccn1", "hERG current change (%, negative = inhibition) at 1uM": 10.4}, {"smiles": "Cc1cc(C)c2c(N)c(C(=O)Nc3ccc(F)cc3)sc2n1", "hERG current change (%, negative = inhibition) at 1uM": 9.82}, {"smiles": "CCC(c1nc2ccccc2c(=O)n1CCCn1ccnc1)N1C(=O)c2ccccc2C1=O", "note": "(stereo not drawn)", "hERG current change (%, negative = inhibition) at 1uM": -9.91}, {"smiles": "CC(=O)N(Cc1ccccc1)c1nc(-c2ccccc2)cs1", "hERG current change (%, negative = inhibition) at 1uM": 8.75}, {"smiles": "CCc1cc(CNC(=O)CC2C(=O)NCCN2Cc2cccc(OC)c2)on1", "note": "(stereo not drawn)", "hERG current change (%, negative = inhibition) at 1uM": -4.31}, {"smiles": "Fc1ccc(-c2nnc(NC3=NCCCCC3)o2)cc1", "hERG current change (%, negative = inhibition) at 1uM": -0.297}, {"smiles": "COc1ccccc1N1CCN(C2CCCN(C(=O)CCc3c(C)noc3C)C2)CC1", "note": "(stereo not drawn)", "hERG current change (%, negative = inhibition) at 1uM": 6.12}, {"smiles": "c1cncc(-c2nc(NCc3ccco3)c3ccccc3n2)c1", "hERG current change (%, negative = inhibition) at 1uM": 4.16}, {"smiles": "CCOc1ccc(S(=O)(=O)N(CC(=O)NC2CCCC2)c2ccc(F)cc2)cc1", "hERG current change (%, negative = inhibition) at 1uM": 13.4}, {"smiles": "CN(C)CCCNC(NC(=O)/C=C/c1ccccc1)C(Cl)(Cl)Cl", "note": "(stereo not drawn)", "hERG current change (%, negative = inhibition) at 1uM": 13.5}, {"smiles": "CCC(CC)C(=O)NCCc1cc2ccc(OC)cc2[nH]c1=O", "hERG current change (%, negative = inhibition) at 1uM": -2}, {"smiles": "O=C(c1ccc(N2CCN(C(=O)c3ccc(F)cc3F)CC2)cc1)c1cccc(F)c1", "hERG current change (%, negative = inhibition) at 1uM": 6.7}, {"smiles": "CCO[C@H]1OC(C(=O)NCc2ccccc2)=C[C@@H](C(C)(C)C)[C@@H]1CCCO", "hERG current change (%, negative = inhibition) at 1uM": 13.1}, {"smiles": "Clc1ccccc1-c1nnc(-c2cccnc2)o1", "hERG current change (%, negative = inhibition) at 1uM": 12.6}, {"smiles": "O=C(CN1C(=O)C2CCCCN2C(=O)c2ccccc21)N1CCCc2ccccc21", "note": "(stereo not drawn)", "hERG current change (%, negative = inhibition) at 1uM": 15.1}, {"smiles": "CCc1nc(Nc2ccc(OC)c(OC)c2)c2nnn(Cc3ccccc3Cl)c2n1", "hERG current change (%, negative = inhibition) at 1uM": 12.1}, {"smiles": "O=C(CSCC(=O)OCn1nnc2ccccc2c1=O)Nc1ccc(Cl)cc1", "hERG current change (%, negative = inhibition) at 1uM": 12.4}, {"smiles": "COc1ccc(CNC(=O)c2cc(=O)c3cc(C)c(C)cc3o2)cc1", "hERG current change (%, negative = inhibition) at 1uM": 14.6}, {"smiles": "COc1ccc(C2CC(=O)c3c([nH]c(C(=O)OC(C)C)c3C)C2)cc1OC", "note": "(stereo not drawn)", "hERG current change (%, negative = inhibition) at 1uM": 2.15}, {"smiles": "Cc1cc(/C=C(\\C#N)C(=O)OCC(=O)Nc2ccc(OC(F)F)cc2)c(C)n1CC(C)C", "hERG current change (%, negative = inhibition) at 1uM": 3.2}, {"smiles": "CC(NC(=O)CCN1C(=O)c2ccccc2S1(=O)=O)c1ccccc1", "note": "(stereo not drawn)", "hERG current change (%, negative = inhibition) at 1uM": 12.6}, {"smiles": "Cn1c(CBr)c(C(=O)c2ccc([N+](=O)[O-])cc2)c(=O)n(C)c1=O", "hERG current change (%, negative = inhibition) at 1uM": 9.7}, {"smiles": "CS(=O)(=O)N1N=C(c2ccc(Br)cc2)CC1c1cccs1", "note": "(stereo not drawn)", "hERG current change (%, negative = inhibition) at 1uM": 15.9}, {"smiles": "O=C(CNC(=O)c1ccc(Br)o1)NNC(=O)COc1ccccc1Cl", "hERG current change (%, negative = inhibition) at 1uM": 10.1}, {"smiles": "N/C(=N\\OC(=O)COc1ccc(Br)cc1)c1cccc([N+](=O)[O-])c1", "hERG current change (%, negative = inhibition) at 1uM": 7.88}, {"smiles": "CC(C)(C#N)Nn1cnnc1", "hERG current change (%, negative = inhibition) at 1uM": 9.44}, {"smiles": "CCN(CC)CCCNC(=O)c1nn2c(C(F)(F)F)cc(-c3ccccc3)nc2c1Cl", "hERG current change (%, negative = inhibition) at 1uM": -3.58}, {"smiles": "O=C(N/N=C/c1cccnc1)c1ccc(Cn2cc([N+](=O)[O-])cn2)o1", "hERG current change (%, negative = inhibition) at 1uM": 8.59}, {"smiles": "O=C(c1nc[nH]c1C(=O)N1CCc2ccccc2C1)N1CCc2ccccc2C1", "hERG current change (%, negative = inhibition) at 1uM": 13.6}, {"smiles": "Cc1ccc(/C=N/NC(=O)CSc2nnc(-c3ccccc3)n2-c2ccc(Cl)cc2)o1", "hERG current change (%, negative = inhibition) at 1uM": 7.81}, {"smiles": "Cc1cc(C(=O)COC(=O)c2ccc(O)cc2)c(C)n1CCc1ccc(F)cc1", "hERG current change (%, negative = inhibition) at 1uM": 11}, {"smiles": "CCO[C@H]1OC(C(=O)NCc2ccccc2)=C[C@@H](c2ccccc2)[C@@H]1CCCO", "hERG current change (%, negative = inhibition) at 1uM": 10.3}]}]}
